# Out of some 110,000 compounds screened, about 230 (0.21%) showed an effect of 50% or more. The list shows a part of the results.
# Molecular target: DPAP1 (Plasmodium falciparum, UniProt Q8IIJ9)
# Test: primary screen, percent inhibition; read by cleavage of a fluorogenic dipeptide substrate; higher = more effect of the substance
# Parameters: species or system P. falciparum D10 trophozoite lysates; single well
# 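Also: 30 min substrate incubation versus DMSO and 10 µM JCP410 controls.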
# Sequence of DPAP1 (Q8IIJ9 whole entry, looked up): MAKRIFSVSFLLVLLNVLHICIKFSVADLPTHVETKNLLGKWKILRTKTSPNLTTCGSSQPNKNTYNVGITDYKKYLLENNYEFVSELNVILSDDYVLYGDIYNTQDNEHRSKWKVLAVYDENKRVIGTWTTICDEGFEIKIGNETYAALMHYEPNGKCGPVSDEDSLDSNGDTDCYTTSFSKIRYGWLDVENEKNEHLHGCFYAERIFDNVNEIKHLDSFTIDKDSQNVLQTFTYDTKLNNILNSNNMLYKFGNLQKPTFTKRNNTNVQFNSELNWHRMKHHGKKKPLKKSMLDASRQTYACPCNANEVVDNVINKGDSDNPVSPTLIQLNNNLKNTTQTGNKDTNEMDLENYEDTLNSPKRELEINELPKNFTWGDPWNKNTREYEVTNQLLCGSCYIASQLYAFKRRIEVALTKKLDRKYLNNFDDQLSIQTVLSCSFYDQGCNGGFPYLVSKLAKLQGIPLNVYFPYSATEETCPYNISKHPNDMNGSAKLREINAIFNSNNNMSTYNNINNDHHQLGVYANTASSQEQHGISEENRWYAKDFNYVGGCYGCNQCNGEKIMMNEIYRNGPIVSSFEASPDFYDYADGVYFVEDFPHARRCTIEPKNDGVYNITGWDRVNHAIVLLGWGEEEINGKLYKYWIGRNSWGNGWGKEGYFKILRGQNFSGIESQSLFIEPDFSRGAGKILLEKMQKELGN
row,SMILES,% Inhibition @ 10 uM [%]
1,COc1ccc(C(=O)Nc2cccc(O)c2)cc1S(=O)(=O)N1CCOCC1,-0.992
2,CCCCOc1ccc(C(C)NC(=O)C2CCN(S(=O)(=O)CCC)CC2)cc1 (stereo not shown),-3.58
3,O=C(NCc1ccc(F)cc1)C1CCCN(S(=O)(=O)c2c[nH]cn2)C1 (stereo not shown),-6.03
4,CCCc1nnc(NC(=O)c2nc(S(=O)(=O)Cc3cccc(C)c3)ncc2Cl)s1,-0.946
5,O=Cc1cn(Cc2ccc(F)cc2Cl)c2ccccc12,-2.72
6,COc1ccc(-c2nc3s/c(=C\c4cc(OC)c(OC)c(OC)c4)c(=O)n3n2)cc1OC,2.24
7,COc1ccc2c(c1)C(SCC(=O)NC1CC1)CC(C)(C)O2 (stereo not shown),-1.89
8,Nc1nc(-c2ccc(Cl)c(Cl)c2)nc2c1c(=O)oc1ccccc12,6.08
9,N=C1/C(=C\c2coc3ccccc3c2=O)C(=O)N=C2SC(CC(=O)N3CCCC3)=NN12,-7.65
10,CCOc1ccc(CCNC(=O)CSc2nc(C)cc(COC)c2C#N)cc1OCC,-0.703
11,Clc1cccc(OCCCCCCN2CCOCC2)c1,0.815
12,O=C(CN(C1CCCCC1)S(=O)(=O)c1ccccc1)Nc1cccc2ccccc12,-1.84
13,Cc1ccc(CN2CC34C=CC(O3)C(C(=O)NCc3ccc5c(c3)OCO5)C4C2=O)cc1 (stereo not shown),4.06
14,CCOc1ccc(C(=O)CCN(C)CC(=O)O)cc1,89.9
15,O=C(NC1(C(F)(F)F)NC(=O)N(c2ccc(Cl)cc2)C1=O)c1ccccc1F (stereo not shown),-12.1
16,O=C(NCCCN1CCc2ccccc2C1)C1=Cc2sc3c(c2CS1)CCCC3,10.2
17,COc1cccc(/C=C/c2nc(C#N)c(N3CCC(C)CC3)o2)c1,-2.57
18,CC1CCN(C(=O)CN2C(=O)c3cccc4cccc2c34)CC1,-3.84
19,O=C(O)/C(=C/c1cnc2ccccc2c1)NC(=O)c1ccccc1,-13.5
20,Cc1cccc(NS(=O)(=O)c2cc(Cl)ccc2Cl)n1,-9.24
21,NC(=O)c1ccc(N2CCOCC2)nc1,4.31
22,CC1CCN(c2nc3c(-c4ccc(Cl)cc4)nnn3c3ccccc23)CC1,2.04
23,CCOC(=O)C1=C(CN2CCC3(CC2)OCCO3)NC(=O)NC1c1ccc(C)cc1 (stereo not shown),-7.28
24,Brc1ccc(CN2CCN(c3ncccn3)CC2)s1,-0.261
25,CCOC(=O)c1c(C)[nH]c(C)c1S(=O)(=O)N1CCCCC1C (stereo not shown),3.1

row,SMILES,% Inhibition @ 10 uM [%]
1,O=C(c1cccc(F)c1)c1coc2ccc(Br)cc2c1=O,-2.53
2,CCOC(=O)C1=C(C)N(CC(C)C)C(=O)/C1=C\c1ccc(C(=O)O)cc1,-0.169
3,CCOCCCNC(=O)CCc1c(C)nc2c(c(C)nn2-c2ccc(C)c(C)c2)c1C,-6.03
4,CCc1ccc(-n2nc(C)c3c(C(=O)NC4CCCCC4)cc(C)nc32)cc1,3.2
5,CCOc1cccc(/C=C2/NC(=O)NC2=O)c1O,-1.25
6,Cc1ccccc1N1OC2C(=O)N(c3ccccc3)C(=O)C2C1c1ccco1 (stereo not shown),2.7
7,CC(=O)N1CCN(C/C(C)=C/c2ccccc2)CC1,3.68
8,O=C(COc1ccc([N+](=O)[O-])cc1)c1ccc(Br)cc1,-0.0369
9,C=CCOc1ccc(/C=C2\C(=N)N3N=C(N4CCCCC4)SC3=NC2=O)cc1OC,0.0579
10,CC1=CC2=NC(=O)/C(=C\c3cc(C)n(-c4cccc(C)c4C)c3C)C(=N)N2O1,-3.23
11,CCN(CC)S(=O)(=O)c1ccc(NC(=O)COc2ccc3ccccc3c2)cc1,4.3
12,COc1ccc(OC)c(S(=O)(=O)NC(C)c2ccccc2)c1 (stereo not shown),-6.87
13,Cc1ccc(S(=O)(=O)N2CCC(C(=O)NCc3ccc4c(c3)OCO4)CC2)cc1,0.387
14,CC(C)(C)c1ccc(-c2nc(NCCCN3CCOCC3)c3ccccc3n2)cc1,6.76
15,CCCCNC(=O)CN(c1ccc(F)cc1)S(C)(=O)=O,3.01
16,O=C(NCCN1CCOCC1)c1cc2nc3c(c(C(F)(F)F)n2n1)CCc1ccccc1-3,3.04
17,N#CC(NC(=O)[C@H](CC1CCCCC1)NC(=O)OCc1ccccc1)c1ccccc1 (stereo partly shown),1.71
18,COc1cc2c(cc1OC)C(SC)=NC1(CCCC1)C2,-0.357
19,O=C(NC1CC1)c1ccc(C(=O)NC2CC2)cc1,0.605
20,O=C(CSc1nc2ccsc2c(=O)n1CCCN1CCCCC1)NCCCc1ccccc1,0.359
21,CC(NC(=O)Cn1cc(C(=O)c2ccccc2)c2ccccc21)c1ccccc1 (stereo not shown),-3.76
22,CN1CSC2=C(C#N)C(c3cccc(OCc4ccccc4)c3)CC(=O)N2C1 (stereo not shown),71.1
23,CCC(C)NC(=O)CCn1ccc2cc(S(=O)(=O)N3CCCC3)ccc21 (stereo not shown),-2.68
24,CCC(=O)c1ccc(N2CCN(C(=O)c3cc(F)c(F)cc3C)CC2)c(F)c1,-1.63
25,Cc1ccc(C2CC(C(F)(F)F)n3nc(C(=O)NCc4cnn(C)c4C)cc3N2)cc1 (stereo not shown),3.8

row,SMILES,% Inhibition @ 10 uM [%]
1,Cc1ccccc1-n1c(/C=C/c2cccnc2)nc2ccccc2c1=O,13.8
2,NC(=O)c1ccc(NC(=O)CCCOc2ccc(Cl)cc2Cl)cc1,0.907
3,CCC(C)C(NC(=O)c1ccc(-c2csc(Nc3cccnc3)n2)cc1)C(=O)NCC#N (stereo not shown),-11
4,CC(C)CCNS(=O)(=O)c1csc(C(N)=O)c1,-5.57
5,COCCNC(=O)CN(c1ccc(F)cc1)S(=O)(=O)c1ccccc1,-5.46
6,COc1ccc(-c2csc(Nc3ccc(C)cn3)n2)cc1OC,3.38
7,CNC(=O)Cc1nnc(-c2ccc(C)cc2)o1,2.97
8,O=C(N[C@@H](Cc1ccc2ccccc2c1)C(=O)N[C@@H](Cc1ccccc1)C(=O)C[N+](=O)[O-])OCc1ccccc1,-5.85
9,Cn1c(SCc2ccc(F)cc2)nc2ccc(C(=O)N3CCC(C(N)=O)CC3)cc21,-8.99
10,CCCc1cc(=O)n2nc(N3CCC(C(=O)NCc4ccc(C)o4)CC3)sc2n1,-3.79
11,CN(C)CCOc1ccc2c(c1)Sc1ccccc1CC2=O,-2.18
12,Cc1cc(C)c2nc(N3CCCC(C(=O)N4CCCCCC4)C3)sc2c1 (stereo not shown),1.8
13,CCSc1nc2ccccc2n1CCO,-3.14
14,CCC(CO)Nc1ncnc2onc(-c3ccc(F)cc3)c12 (stereo not shown),1.06
15,Cc1ccc(S(=O)(=O)c2ccc(Sc3ccc(C)c(C)c3)cc2)cc1,3.25
16,Cc1ccc(-n2cc(-c3ccccc3)c3c(N4CCOCC4)ncnc32)cc1Cl,2.56
17,Cc1ccc(C(C)C)c(OCC(=O)NCc2ccccc2)c1,0.00784
18,Cc1ccc2sc(N(CCN(C)C)C(=O)CCS(=O)(=O)c3ccccc3)nc2c1C,-2.5
19,CC1=Nc2ncnn2C(c2cccs2)/C1=C(/O)OCc1ccccc1 (stereo not shown),-0.465
20,COc1ccc2c(c1)C1=C(CC2)C(c2ccccc2)NC(S)=N1 (stereo not shown),0.345
21,Cc1ccc(S(=O)(=O)Nc2ccc(-c3cn4ccsc4n3)cc2)cc1C,-2.16
22,CCCCOc1ccc(C(=O)NCCc2ccccc2)cc1,3.37
23,O=C(N(CCN(C(=O)C(F)(F)F)c1ccccc1)c1ccccc1)C(F)(F)F,-2.74
24,CN(C)CCCNC(=O)/C(=C/c1ccc(F)cc1)NC(=O)c1ccccc1,2.41
25,N#CCNC(=O)[C@H](Cn1cncn1)NC(=O)OCc1ccccc1,-1.82

row,SMILES,% Inhibition @ 10 uM [%]
1,COc1ccc(S(=O)(=O)NC(C)c2ccccc2)cc1OC (stereo not shown),5.1
2,CCN(CC)C(=O)C1CCCN(Cc2sccc2C)C1 (stereo not shown),-2.7
3,Cc1cc(-n2nc(C)cc2C)nc(-n2nc(C)cc2C)n1,-3.77
4,O=C(Cc1ccc(F)cc1F)Nc1ccc(F)cc1F,-0.833
5,COc1ccc(OC)c(/C=C2\N=C(c3ccccc3Cl)OC2=O)c1,-7.01
6,O=C(CSc1nc2c(c(C(F)(F)F)n1)CCc1ccccc1-2)NCCCN1CCOCC1,3.35
7,CCCn1c(CNc2ccccc2O)nc2ccccc21,4.61
8,O=c1c2ccccc2ncn1-c1cc(C(F)(F)F)cc(C(F)(F)F)c1,-1.96
9,O=C1NC(c2ccccc2)C(C(=O)c2ccc(Br)cc2)C(O)(C(F)(F)F)N1 (stereo not shown),4.59
10,CC1CCN(S(=O)(=O)c2ccc3c(ccn3CC(=O)NCCc3ccccc3Cl)c2)CC1,-0.177
11,O=C1OC(/C=C/c2ccc(Cl)cc2)=NC/1=C/c1cccs1,-0.423
12,N#CC1=C(N)OC2=C(C(=O)CCC2)C1c1ccc(Oc2ccc([N+](=O)[O-])cc2Cl)cc1 (stereo not shown),-2.63
13,Cn1nc(-c2ccccc2F)c2cc(C(=O)N3CCC4(CC3)OCCO4)sc21,-5.1
14,CC1=C(C(=O)Nc2ccccc2C)C(c2ccc(Cl)cc2)NC(=O)N1 (stereo not shown),-2.2
15,COc1ccc(CCNC(=O)CSc2nnc(CNC(=O)c3ccccc3F)o2)cc1OC,-1.58
16,COc1ccccc1Cn1c(SCC(N)=O)nc2c(oc3ccccc32)c1=O,-6.07
17,Cc1nc2c(c(C)nn2-c2ccccc2)c(C)c1CCC(=O)N1CCC(N2CCCCC2)CC1,-0.465
18,Cc1cccnc1CN1CCN(Cc2ncccc2C)CC1,3.57
19,O=C(Nc1nsc(-c2ccccc2)n1)c1ccccc1,-5.3
20,CCc1ccc2ncc(S(=O)(=O)c3ccc(OC)cc3)c(N3CCN(CC)CC3)c2c1,-5.54
21,CCOC(=O)c1cc(S(=O)(=O)NCc2ccccc2Cl)cn1C,-2.84
22,O=C(Nc1ccc(S(=O)(=O)Nc2ccc(F)cc2)cc1)C(F)(F)F,0.746

# From paper PMC6919601, “Identification of Plasmodium dipeptidyl aminopeptidase allosteric inhibitors by high throughput screening” (PLoS ONE, 2019)
